# Assay results from paper PMC7084544.
# Chains of the proteins cited; added tags and fusions are not shown.
# UniProt Q9Y265: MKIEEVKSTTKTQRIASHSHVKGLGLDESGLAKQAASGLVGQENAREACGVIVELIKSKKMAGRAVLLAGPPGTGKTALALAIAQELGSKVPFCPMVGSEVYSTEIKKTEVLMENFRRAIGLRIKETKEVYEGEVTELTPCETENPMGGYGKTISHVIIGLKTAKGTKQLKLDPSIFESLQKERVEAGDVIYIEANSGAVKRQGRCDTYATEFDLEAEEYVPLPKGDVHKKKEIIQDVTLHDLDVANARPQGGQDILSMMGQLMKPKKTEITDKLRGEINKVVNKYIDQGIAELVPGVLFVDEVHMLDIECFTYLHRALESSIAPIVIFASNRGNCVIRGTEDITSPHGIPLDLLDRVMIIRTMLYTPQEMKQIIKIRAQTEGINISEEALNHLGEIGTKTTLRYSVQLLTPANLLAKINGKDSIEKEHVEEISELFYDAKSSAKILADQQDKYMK
# UniProt Q15596: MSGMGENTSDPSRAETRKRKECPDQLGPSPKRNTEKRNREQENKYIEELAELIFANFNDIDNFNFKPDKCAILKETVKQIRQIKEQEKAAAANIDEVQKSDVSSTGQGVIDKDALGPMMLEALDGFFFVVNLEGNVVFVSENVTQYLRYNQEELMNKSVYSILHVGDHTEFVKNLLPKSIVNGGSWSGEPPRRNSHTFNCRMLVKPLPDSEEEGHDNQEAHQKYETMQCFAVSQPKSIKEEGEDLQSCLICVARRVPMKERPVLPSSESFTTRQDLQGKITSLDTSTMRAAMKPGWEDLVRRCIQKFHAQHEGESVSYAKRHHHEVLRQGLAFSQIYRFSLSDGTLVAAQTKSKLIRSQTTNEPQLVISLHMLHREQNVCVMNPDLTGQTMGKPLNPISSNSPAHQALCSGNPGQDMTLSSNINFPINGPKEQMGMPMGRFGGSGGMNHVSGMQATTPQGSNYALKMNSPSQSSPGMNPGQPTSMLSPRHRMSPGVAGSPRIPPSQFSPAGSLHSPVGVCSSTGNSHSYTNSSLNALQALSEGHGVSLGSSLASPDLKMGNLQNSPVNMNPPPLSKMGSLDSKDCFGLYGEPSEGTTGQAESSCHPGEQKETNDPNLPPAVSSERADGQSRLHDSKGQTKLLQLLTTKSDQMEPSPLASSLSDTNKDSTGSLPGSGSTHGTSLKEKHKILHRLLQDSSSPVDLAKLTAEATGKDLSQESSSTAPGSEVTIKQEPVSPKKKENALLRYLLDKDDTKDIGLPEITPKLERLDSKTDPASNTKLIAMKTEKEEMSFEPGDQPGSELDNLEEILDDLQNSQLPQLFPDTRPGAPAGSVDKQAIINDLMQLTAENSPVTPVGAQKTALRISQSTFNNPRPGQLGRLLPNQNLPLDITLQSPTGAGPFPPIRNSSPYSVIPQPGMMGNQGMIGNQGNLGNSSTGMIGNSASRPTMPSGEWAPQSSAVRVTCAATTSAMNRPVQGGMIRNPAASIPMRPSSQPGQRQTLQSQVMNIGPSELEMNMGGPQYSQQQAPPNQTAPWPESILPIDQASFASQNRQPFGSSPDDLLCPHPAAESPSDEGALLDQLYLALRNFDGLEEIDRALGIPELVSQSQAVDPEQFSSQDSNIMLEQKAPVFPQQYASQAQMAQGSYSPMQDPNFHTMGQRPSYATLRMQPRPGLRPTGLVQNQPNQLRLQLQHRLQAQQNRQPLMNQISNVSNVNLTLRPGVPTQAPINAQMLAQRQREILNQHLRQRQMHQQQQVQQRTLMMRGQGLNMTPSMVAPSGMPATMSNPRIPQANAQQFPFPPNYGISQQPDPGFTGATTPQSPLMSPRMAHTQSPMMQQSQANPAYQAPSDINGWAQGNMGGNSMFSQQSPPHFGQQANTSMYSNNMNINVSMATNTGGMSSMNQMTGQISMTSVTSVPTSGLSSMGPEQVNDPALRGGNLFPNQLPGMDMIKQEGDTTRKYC
# UniProt Q92993: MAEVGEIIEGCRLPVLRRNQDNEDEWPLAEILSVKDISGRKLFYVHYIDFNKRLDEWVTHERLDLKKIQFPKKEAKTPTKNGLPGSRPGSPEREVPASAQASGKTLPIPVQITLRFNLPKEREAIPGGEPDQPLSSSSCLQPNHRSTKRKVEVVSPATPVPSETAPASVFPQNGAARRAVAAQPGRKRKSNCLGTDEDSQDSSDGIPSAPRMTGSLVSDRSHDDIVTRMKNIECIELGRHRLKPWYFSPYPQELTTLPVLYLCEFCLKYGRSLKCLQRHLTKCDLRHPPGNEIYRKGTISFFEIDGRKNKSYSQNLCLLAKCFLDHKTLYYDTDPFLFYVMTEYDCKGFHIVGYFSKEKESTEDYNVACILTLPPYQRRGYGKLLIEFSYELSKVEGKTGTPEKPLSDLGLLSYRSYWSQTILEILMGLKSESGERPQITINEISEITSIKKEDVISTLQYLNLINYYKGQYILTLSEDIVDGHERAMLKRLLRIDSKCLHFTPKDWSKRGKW
# Results are given in words; binding and its absence hold for the method and conditions named. In cells and extracts the contact can be indirect. Some binding calls cover weakened binding; strength is not graded here. Tags and fused reporters may be left off the sequences shown.
# Tests used:
# [1] = biological target: T1, FLAG–RORα2 WT (transfected) (human) (UniProt P35398); experiment: co-IP; cells transfected with FLAG-RORα2, HA-Tip60 or GFP-pontin, without or with Hismax-SETD7 WT; extracts immunoprecipitated with anti-FLAG, blotted with anti-HA or anti-GFP (Figure 4B,C)
# T1 sequence: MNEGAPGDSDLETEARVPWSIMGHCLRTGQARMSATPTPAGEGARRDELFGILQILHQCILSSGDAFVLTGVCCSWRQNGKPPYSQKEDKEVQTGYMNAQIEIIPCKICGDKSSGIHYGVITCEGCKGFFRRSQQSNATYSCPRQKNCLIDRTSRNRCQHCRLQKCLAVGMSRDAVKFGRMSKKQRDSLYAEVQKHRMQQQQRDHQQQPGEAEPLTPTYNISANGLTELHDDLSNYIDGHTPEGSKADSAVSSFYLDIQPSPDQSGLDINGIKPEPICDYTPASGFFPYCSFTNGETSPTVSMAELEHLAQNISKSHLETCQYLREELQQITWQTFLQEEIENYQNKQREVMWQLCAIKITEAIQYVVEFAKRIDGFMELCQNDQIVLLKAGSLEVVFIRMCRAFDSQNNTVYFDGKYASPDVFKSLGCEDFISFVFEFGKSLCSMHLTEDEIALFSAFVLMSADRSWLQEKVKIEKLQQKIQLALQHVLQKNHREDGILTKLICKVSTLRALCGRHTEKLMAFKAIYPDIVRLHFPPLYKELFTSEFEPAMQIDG
# [2] = biological target: T2, FLAG-tagged RORα2 (retinoid acid-related orphan receptor α, isoform 2), used for complex purification (human) (UniProt P35398); experiment: co-IP; FLAG-RORα1 or FLAG-RORα2 purified from cell extracts on anti-FLAG (M2) agarose; washed with 20 mM Tris-HCl pH 7.9, 15% glycerol, 1 mM EDTA, 1 mM DTT, 0.05% Nonidet P40, 150 mM KCl; eluted with FLAG peptide; eluates Western-blotted (Figure 2C)
# T2 sequence: T1 sequence
# FLAG-tagged RORα1 = biological target: T3, FLAG-tagged RORα1 (UniProt P35398); experiment: as above
# T3 sequence: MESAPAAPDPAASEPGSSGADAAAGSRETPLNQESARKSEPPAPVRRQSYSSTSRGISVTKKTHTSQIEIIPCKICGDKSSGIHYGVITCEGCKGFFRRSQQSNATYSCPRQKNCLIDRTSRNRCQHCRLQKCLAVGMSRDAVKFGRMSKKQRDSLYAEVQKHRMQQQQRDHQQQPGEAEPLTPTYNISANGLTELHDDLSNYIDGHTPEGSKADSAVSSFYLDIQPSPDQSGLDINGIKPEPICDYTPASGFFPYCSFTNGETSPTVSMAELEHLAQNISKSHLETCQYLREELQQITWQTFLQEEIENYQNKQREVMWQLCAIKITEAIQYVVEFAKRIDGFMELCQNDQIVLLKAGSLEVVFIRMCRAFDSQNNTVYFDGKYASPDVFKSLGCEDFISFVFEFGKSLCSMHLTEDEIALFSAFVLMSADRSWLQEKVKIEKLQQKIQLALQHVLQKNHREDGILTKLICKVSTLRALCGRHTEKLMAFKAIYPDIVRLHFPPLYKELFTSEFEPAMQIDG
# [3] = biological target: T1, FLAG–RORα2 WT (transfected) (human); experiment: condition: only with co-expressed SETD7 enzymatic mutant; co-IP; as a4, but cells co-transfected with the Hismax-SETD7 enzymatic mutant; anti-FLAG immunoprecipitation, anti-HA blot (Figure 4B)
Substance,binding [1],binding [2],binding (FLAG-tagged RORα1),binding [3]
GFP-pontin (from UniProt Q9Y265 1-456),binds,–,–,–
"Grip1 (endogenous, co-purified from cell extracts) (from UniProt Q15596 1-1464)",–,binds,binds,–
HA-Tip60 (from UniProt Q92993 1-513),binds,–,–,no binding
"Tip60 (endogenous, co-purified from cell extracts) (from UniProt Q92993 1-513)",–,binds,no binding,–
"pontin (endogenous, co-purified from cell extracts) (from UniProt Q9Y265 1-456)",–,binds,no binding,–
